The text below walks through data of PubChem BioAssay AID1745853 (National Center for Advancing Translational Sciences (NCATS), 2022).

The other results are listed elsewhere or left out. Further columns of the screen follow, without active or inactive calls.

Holding throughout (test): Primary Screen for Target Class Profiling of Small Molecule Inhibitors of Methyltransferases
The target in assay [1] is Glycine N-methyltransferase (Homo sapiens) (UniProt Q14749). To be noted: purified enzyme, MTase-Glo SAH luminescence; measured here: GNMT inhibition; at 40 µM; stronger effect = lower value. An outline of the steps: (§1)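 Each enzyme was reacted with SAM and its substrate, with compounds tested once at 40 uM; SAH formed was read by MTase-Glo luminescence.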
Assay [2] has as its target Guanidinoacetate N-methyltransferase (Homo sapiens) (UniProt Q14353). To be noted: purified enzyme, MTase-Glo SAH luminescence; measured here: GAMT inhibition; at 40 µM; stronger effect = lower value. In a few lines:
as §1

In assay [3] the target is Histamine N-methyltransferase (Homo sapiens) (UniProt P50135). To be noted: purified enzyme, MTase-Glo SAH luminescence; measured here: HNMT inhibition; at 40 µM; stronger effect = lower value. In a few lines:
as §1

For assay [4], the target named is Nicotinamide N-methyltransferase (Homo sapiens) (UniProt P40261). To be noted: purified enzyme, MTase-Glo SAH luminescence; measured here: NNMT inhibition; at 40 µM; stronger effect = lower value. In a few lines: as §1
The target of assay [5] is Phenylethanolamine N-methyltransferase (Homo sapiens) (UniProt P11086). To be noted: purified enzyme, MTase-Glo SAH luminescence; measured here: PNMT inhibition; at 40 µM; stronger effect = lower value. An outline of the steps:
as §1
% is scaled to controls: 0 for no effect and ±100 for the full control effect.

Regarding `Cc1sc2ccccc2c1CC1=NCCN1`, the activity change, negative = inhibition is -12.5% in assay [1]; 7.94% in assay [2]; -12.9% in assay [3]; -11.7% in assay [4]; -28.4% in assay [5].

On to `CN(C)c1ccc(C2c3cccn3-c3ccccc3CN2C(=O)NCc2ccco2)cc1` (stereo not given), for which the activity change, negative = inhibition in assay [1] was 7.98%; in assay [2], 4.09%; in assay [3] it was -4.42%; in assay [4] it was -5.85%; in assay [5], 2.4%.

For the molecule `CCc1ccc(C2c3cccn3-c3ccccc3CN2C(=O)Nc2ccc(Br)cc2)cc1` (stereo not given), the activity change, negative = inhibition in assay [1] came out at 13.8%; in assay [2], 0.889%; in assay [3] it was 4.99%; in assay [4], 2.06%; in assay [5], 5.96%.

In the case of `COc1ccc(N(C(=O)Oc2c(C)cccc2C)c2ccnc(Nc3ccc(N4CCN(C)CC4)cc3)n2)c(OC)c1`, the activity change, negative = inhibition was 2.3% in assay [1]; 11.8% in assay [2]; 1.8% in assay [3]; -13.3% in assay [4]; -4.21% in assay [5].

With `COC1=C[C@@H]2[C@@H]3Cc4ccc(OC)c(O)c4[C@]2(CCN3C)CC1=O`, the activity change, negative = inhibition in assay [1] was 3.29%; in assay [2] it was 3.97%; in assay [3] it was 6.5%; in assay [4] it was -6.53%; in assay [5], 3.11%.

Consider `CCOc1ccc(C2c3cccn3-c3ccccc3CN2C(=O)Nc2cc(C)ccc2C)cc1` (stereo not given), for which the activity change, negative = inhibition in assay [1] is -1%; in assay [2], 0%; in assay [3], 2.61%; in assay [4], 7.22%; in assay [5], 4.17%.

Take `C[N+](C)(C)CCOC(=O)CBr`: the activity change, negative = inhibition in assay [1] was 1.51%; in assay [2] it was 11.3%; in assay [3], -5.38%; in assay [4], -2.69%; in assay [5], 8.86%.

On to `C/C(=C\c1csc(C)n1)[C@@H]1C[C@@H]2O[C@@H]2CCC[C@H](C)[C@H](O)[C@@H](C)C(=O)C(C)(C)[C@@H](O)CC(=O)O1`, for which the activity change, negative = inhibition in assay [1] is -2.16%; in assay [2] it was -7.83%; in assay [3], 0.618%; in assay [4], -19.1%; in assay [5], -2.63%.

`CCc1nn(C)c(C(=O)NCc2ccc(Oc3ccc(C)cc3)cc2)c1Cl`: the activity change, negative = inhibition in assay [1] is -0.785%; in assay [2] it was -5.15%; in assay [3] it was 12.8%; in assay [4], -17.4%; in assay [5], -1.28%.

For `CC(=O)O[C@H]1C[C@@H](OC(C)=O)C(C)(C)C2C[C@@H](O)[C@]3(C)C(CC[C@@]4(C)[C@H](C5=CC(=O)OC5O)C[C@H]5O[C@]543)[C@]21C` (stereo not given in full), the activity change, negative = inhibition is 2.45% in assay [1]; 4.52% in assay [2]; 4.88% in assay [3]; -10.8% in assay [4]; 2.24% in assay [5].

For the molecule `CO[C@@H]1C[C@H](O[C@H]2CC[C@@]3(C)C(CCC4C3CC[C@]3(C)[C@@H](C5=CC(=O)OC5)[C@@H](OC(C)=O)CC43O)C2)O[C@H](C)[C@@H]1O[C@H]1O[C@H](CO[C@@H]2O[C@H](CO)[C@@H](O)[C@H](O)[C@H]2O)[C@@H](O)[C@H](O)[C@H]1O` (stereo not given in full), the activity change, negative = inhibition in assay [1] is 0.84%; in assay [2], -1.8%; in assay [3], 3.47%; in assay [4] it was -11%; in assay [5], -5.7%.

Turning to `CSc1ccc(C2c3cccn3-c3ccccc3CN2C(=O)Nc2ccc3c(c2)OCCO3)cc1` (stereo not given), the activity change, negative = inhibition is -4.19% in assay [1]; 1.6% in assay [2]; -0.475% in assay [3]; 0% in assay [4]; 4.35% in assay [5].

With `CCn1ccc(C(=O)N2[C@H]3CC[C@@H]2c2cnc(C)nc2C3)n1`, the activity change, negative = inhibition in assay [1] is -3.89%; in assay [2] it was -2.91%; in assay [3] it was -0.623%; in assay [4] it was -2.01%; in assay [5], -20.4%.

`CCCN1CCN(C(=O)Cc2cccn2-c2ccc(F)cc2)CC1`: the activity change, negative = inhibition was -4.88% in assay [1]; -4.72% in assay [2]; -1.41% in assay [3]; -8.08% in assay [4]; -9.81% in assay [5].

Regarding `CCOc1ccc(C2c3cccn3-c3ccccc3CN2C(=O)Nc2ccccc2Cl)cc1` (stereo not given), the activity change, negative = inhibition in assay [1] is 0.803%; in assay [2] it was 0%; in assay [3], -1.72%; in assay [4], -1.71%; in assay [5] it was 1.88%.

`CCOc1ccc(NC(=O)N2Cc3ccccc3-n3cccc3C2c2ccc(SC)cc2)cc1` (stereo not given): the activity change, negative = inhibition in assay [1] turned out to be 0.813%; in assay [2], 0.053%; in assay [3] it was 3.54%; in assay [4], 5.73%; in assay [5] it was 8.07%.

Turning to `Cc1cccc(C2c3cccn3-c3ccccc3CN2C(=O)Nc2ccc(F)cc2)c1` (stereo not given), the activity change, negative = inhibition in assay [1] stood at 6.77%; in assay [2] it was 4.67%; in assay [3] it was 8.41%; in assay [4], 3.1%; in assay [5], 4%.

Consider `CC1C/C=C/C(O)C(O)CC/C=C/c2cc(O)cc(O)c2C(=O)O1` (stereo not given), for which the activity change, negative = inhibition in assay [1] was -9.27%; in assay [2] it was 2.93%; in assay [3] it was -15.5%; in assay [4], -9.61%; in assay [5], -2.44%.

Turning to `NCC(CC(=O)O)c1ccc(Cl)cc1` (stereo not given), the activity change, negative = inhibition in assay [1] was 10.3%; in assay [2] it was 9.73%; in assay [3], 11.3%; in assay [4], -7.23%; in assay [5] it was -3.38%.

For the molecule `CC(C)[C@]12O[C@H]1[C@@H]1O[C@]13[C@]1(O[C@H]1C[C@H]1C4=C(CC[C@@]13C)C(=O)OC4)[C@@H]2O`, the activity change, negative = inhibition in assay [1] is 2.55%; in assay [2], 6.65%; in assay [3], 6.53%; in assay [4], -5.55%; in assay [5], 3.1%.

As to `C[C@]12CC[C@H](O)C[C@@H]1CC[C@@H]1[C@@H]2CC[C@]2(C)[C@@H](C3=CC(=O)OC3)CC[C@]12O`, the activity change, negative = inhibition was 1.33% in assay [1]; 3.21% in assay [2]; 9.87% in assay [3]; -11.3% in assay [4]; -2.69% in assay [5].

As for `Cc1cccc(C2c3cccn3-c3ccccc3CN2C(=O)Nc2ccccc2C)c1` (stereo not given), the activity change, negative = inhibition was 3.02% in assay [1]; 0.285% in assay [2]; -2.56% in assay [3]; -5.41% in assay [4]; 0.512% in assay [5].

As for `CC(C)NC(=O)N1Cc2ccccc2-n2cccc2C1c1ccccc1Cl` (stereo not given), the activity change, negative = inhibition in assay [1] is 0.83%; in assay [2], 0.989%; in assay [3] it was 1.11%; in assay [4], -4.94%; in assay [5], -1.63%.

In the case of `CCc1cnc(N2CCC3(CC2)C(=O)Nc2cc(OCC4CC4)c(OC)cc23)nc1`, the activity change, negative = inhibition was -7.8% in assay [1]; -3.69% in assay [2]; -4% in assay [3]; -11.9% in assay [4]; -5.74% in assay [5].

For the molecule `CN1CCC2=C(C1)c1ccccc1Cc1ccccc12`, the activity change, negative = inhibition in assay [1] is -0.115%; in assay [2], 10.3%; in assay [3], -3.91%; in assay [4], -17.7%; in assay [5], 4.54%.

As for `COc1cc2c(cc1OCC1CCCC1)N([S+](=O)([O-])c1ccc(Oc3ccccc3)cc1)CC21CCN(CC(=O)O)CC1`, the activity change, negative = inhibition in assay [1] was -8.02%; in assay [2], -9.77%; in assay [3], -4.87%; in assay [4], -5.52%; in assay [5], -6.88%.

Consider `C#CC1(O)CCC2C3CCC4=CC(=O)CCC4=C3C=CC21C` (stereo not given), for which the activity change, negative = inhibition in assay [1] is -7.81%; in assay [2], 0.017%; in assay [3], 3.69%; in assay [4] it was -12.3%; in assay [5], -0.758%.

For `COc1ccccc1NC(=O)N1Cc2ccccc2-n2cccc2C1c1cccc(C)c1` (stereo not given), the activity change, negative = inhibition in assay [1] was 4.88%; in assay [2], 3.75%; in assay [3], -2.6%; in assay [4] it was -1.56%; in assay [5], 2.15%.

Consider `C[C@]12CC[C@@H](O)C[C@@H]1CC[C@@H]1[C@@H]2CC[C@]2(C)C(=O)[C@@H](Br)C[C@@H]12`, for which the activity change, negative = inhibition is -2.94% in assay [1]; 1.8% in assay [2]; -4.53% in assay [3]; -14.7% in assay [4]; -7.29% in assay [5].
